Assay results from the RNAGym collection of RNA variant scans (doi:10.7554/elife.90254).
Read counts are not given, so values of variants with three or more changes are uncertain.

B1: LINE1-full (parent)
chain: UACGUAGGUGGUUUUCCCCUGAUAGUGCUAAGGGGGCCUGGAAGUUUGGACUGGGCAGAGCUCAACACAGCGUGGCAAAGUGGCUGUGGCUAGACUGCCUCUCUGGAUUCCUCGUCACUCAGCAGGGCAUCUCUGAGAGAAAUGCC

Variants of: B1
Assay: self-cleavage, relative activity (ratio to wild type); higher = more cleavage; in vitro, sequencing; the parent is a self-cleaving ribozyme

**Q.** For U15A U20C A50G, which self-cleavage is on record?
**A.** The self-cleavage was 0.42.

**Q.** With A6G U47A U96C C113U U143A as the variant, how does the self-cleavage read?
**A.** Its self-cleavage is 0.09.

**Q.** With U29C A42G A50G as the variant, how does the self-cleavage read?
**A.** The self-cleavage was 0.

**Q.** Which self-cleavage does the source give for U14A C103A A142G here?
**A.** Its self-cleavage is 0.88.

**Q.** For A59G U85C A138U, which self-cleavage is on record?
**A.** The self-cleavage was 0.

**Q.** With U52A C103A U104C A142G as the variant, how does the self-cleavage read?
**A.** Its self-cleavage is 1.19.

**Q.** For A50G U52A A65G A136U, which self-cleavage is on record?
**A.** The self-cleavage was 0.13.

**Q.** For U26C U96A U108C, which self-cleavage is on record?
**A.** The self-cleavage was 0.06.

**Q.** With U9A A30G A140G as the variant, how does the self-cleavage read?
**A.** The self-cleavage was 1.

**Q.** Which self-cleavage does the source give for U13C U112C A124G here?
**A.** The self-cleavage was 0.8.

**Q.** With U1C U47A A77G U96C G125A as the variant, how does the self-cleavage read?
**A.** Its self-cleavage is 0.17.

**Q.** With U23C A121G A140G as the variant, how does the self-cleavage read?
**A.** Its self-cleavage is 0.63.

**Q.** With A6G U15C A78G U109A A141G as the variant, how does the self-cleavage read?
**A.** Its self-cleavage is 1.46.

**Q.** Which self-cleavage does the source give for U23C A64C U119C here?
**A.** The self-cleavage was 0.

**Q.** For G75U A79G U85G, which self-cleavage is on record?
**A.** Its self-cleavage is 0.1.

**Q.** With A67U U73G A138G as the variant, how does the self-cleavage read?
**A.** Its self-cleavage is 0.12.

**Q.** With U12A A31G C103U as the variant, how does the self-cleavage read?
**A.** The self-cleavage was 0.74.

**Q.** With G4A G27U U52A A57C A77G C103U as the variant, how does the self-cleavage read?
**A.** The self-cleavage was 0.06.

**Q.** Which self-cleavage does the source give for U73C A107U G137U here?
**A.** The self-cleavage was 2.02.

**Q.** For U12C G58A A67G U102C, which self-cleavage is on record?
**A.** Its self-cleavage is 0.

**Q.** With U9A U47A U102C as the variant, how does the self-cleavage read?
**A.** Its self-cleavage is 1.01.

**Q.** For A6U U12A A65C U73G A92G U109A, which self-cleavage is on record?
**A.** The self-cleavage was 1.11.

**Q.** With G11U U20C A107G as the variant, how does the self-cleavage read?
**A.** Its self-cleavage is 0.9.

**Q.** Which self-cleavage does the source give for U12C U13C A94U here?
**A.** Its self-cleavage is 0.58.

**Q.** For A42G U87G A94G, which self-cleavage is on record?
**A.** The self-cleavage was 0.67.

**Q.** Which self-cleavage does the source give for G21A U81A A117G here?
**A.** Its self-cleavage is 2.07.

**Q.** For U26C A94G U96C C120U A129G, which self-cleavage is on record?
**A.** The self-cleavage was 0.

**Q.** With A6G U12C A42G A140G A142G as the variant, how does the self-cleavage read?
**A.** The self-cleavage was 1.15.

**Q.** For A30U G60A A79G U109C, which self-cleavage is on record?
**A.** The self-cleavage was 0.1.

**Q.** For U9C U14C G89A, which self-cleavage is on record?
**A.** The self-cleavage was 0.32.

**Q.** For U15C U23G G75A A124U, which self-cleavage is on record?
**A.** Its self-cleavage is 0.7.

**Q.** With U12C U15C G21A A79G C110A as the variant, how does the self-cleavage read?
**A.** Its self-cleavage is 1.04.

**Q.** With U20A A78U A129G A140G as the variant, how does the self-cleavage read?
**A.** Its self-cleavage is 2.83.

**Q.** Which self-cleavage does the source give for U1C A22G A64G G105U U115C U132C here?
**A.** Its self-cleavage is 0.27.

**Q.** With G33A A77G U96A as the variant, how does the self-cleavage read?
**A.** The self-cleavage was 0.1.

**Q.** Which self-cleavage does the source give for U14A C19A C133U here?
**A.** The self-cleavage was 1.6.

**Q.** Which self-cleavage does the source give for G8A U52A A117G A124U here?
**A.** Its self-cleavage is 2.01.

**Q.** For U13C U52A U96A U130C A136G A140G, which self-cleavage is on record?
**A.** Its self-cleavage is 0.27.

**Q.** With C17A G32A A59C U73G C110U as the variant, how does the self-cleavage read?
**A.** Its self-cleavage is 0.74.

**Q.** For G35A U100A A124G, which self-cleavage is on record?
**A.** The self-cleavage was 0.56.

**Q.** For U5C U81C U108C G125A A140G, which self-cleavage is on record?
**A.** Its self-cleavage is 2.16.

**Q.** For U15C U47A A136G, which self-cleavage is on record?
**A.** Its self-cleavage is 1.82.

**Q.** For U14C U39A A69G U115A, which self-cleavage is on record?
**A.** Its self-cleavage is 0.54.

**Q.** With U14C G137A A142G as the variant, how does the self-cleavage read?
**A.** Its self-cleavage is 1.13.

**Q.** Which self-cleavage does the source give for C28A G34A G40A A92G here?
**A.** Its self-cleavage is 0.11.

**Q.** Which self-cleavage does the source give for A59G U115C A142C here?
**A.** The self-cleavage was 0.14.

**Q.** For A50G U73C A107U C133U, which self-cleavage is on record?
**A.** Its self-cleavage is 2.51.

**Q.** Which self-cleavage does the source give for G7A A67U U73C here?
**A.** Its self-cleavage is 0.29.

**Q.** For U5C U14C U15A C71U U100C A142G, which self-cleavage is on record?
**A.** Its self-cleavage is 1.52.

**Q.** For A77U G86A A136G, which self-cleavage is on record?
**A.** The self-cleavage was 0.08.

**Q.** For U26C A30U U62C U85C U87A, which self-cleavage is on record?
**A.** The self-cleavage was 0.

**Q.** For A2G U109C A138G A140G, which self-cleavage is on record?
**A.** The self-cleavage was 1.41.

**Q.** For U13C U14C G54A U96A U104C U115A, which self-cleavage is on record?
**A.** The self-cleavage was 0.21.

**Q.** Which self-cleavage does the source give for U12C U45C U109A A142G here?
**A.** Its self-cleavage is 1.27.

**Q.** With U52A A77G U130C U134C as the variant, how does the self-cleavage read?
**A.** Its self-cleavage is 2.35.

**Q.** With U12G G55U A64G as the variant, how does the self-cleavage read?
**A.** The self-cleavage was 0.1.

**Q.** For U9C U52A U62G U112C, which self-cleavage is on record?
**A.** The self-cleavage was 0.

**Q.** Which self-cleavage does the source give for U15A A65U A107G here?
**A.** Its self-cleavage is 0.29.

**Q.** With A2G U15C U96A as the variant, how does the self-cleavage read?
**A.** Its self-cleavage is 0.21.

**Q.** Which self-cleavage does the source give for A2G U9A G122A here?
**A.** The self-cleavage was 0.61.

**Q.** For U23C G72A A117U, which self-cleavage is on record?
**A.** The self-cleavage was 1.35.

**Q.** With U13C U47G A140U as the variant, how does the self-cleavage read?
**A.** Its self-cleavage is 0.

**Q.** Which self-cleavage does the source give for G33A A43G U46C A64U A129G here?
**A.** The self-cleavage was 0.26.

**Q.** Which self-cleavage does the source give for U12C U132A A136G A141G here?
**A.** Its self-cleavage is 0.32.

**Q.** With U12C U100C U115C as the variant, how does the self-cleavage read?
**A.** The self-cleavage was 1.62.

**Q.** With U29C U46C G89A U100C A124U A138G as the variant, how does the self-cleavage read?
**A.** The self-cleavage was 0.04.

**Q.** For U12C U13C A121G U130A, which self-cleavage is on record?
**A.** The self-cleavage was 2.16.

**Q.** For U26A C38U U119C A142G, which self-cleavage is on record?
**A.** The self-cleavage was 1.

**Q.** Which self-cleavage does the source give for A22G U39C U81G A142G U143C here?
**A.** The self-cleavage was 1.1.

**Q.** With A30G A59G U96A A107G as the variant, how does the self-cleavage read?
**A.** The self-cleavage was 0.33.

**Q.** With U29G C76G A117G as the variant, how does the self-cleavage read?
**A.** The self-cleavage was 1.51.

**Q.** For U13C U104A U119C, which self-cleavage is on record?
**A.** The self-cleavage was 1.89.

**Q.** Which self-cleavage does the source give for A24U A31C A42G A64U A124G A141G here?
**A.** Its self-cleavage is 0.66.

**Q.** With A78G G97A C103U C113U A142G as the variant, how does the self-cleavage read?
**A.** Its self-cleavage is 0.07.

**Q.** Which self-cleavage does the source give for U13C C17U U29C U47A U130A here?
**A.** Its self-cleavage is 0.74.

**Q.** Which self-cleavage does the source give for A65U A78G C116U here?
**A.** Its self-cleavage is 0.12.

**Q.** Which self-cleavage does the source give for U12C U62C U81C G114U A124U here?
**A.** Its self-cleavage is 0.11.

**Q.** For U12C U39C A57G U85G U104A, which self-cleavage is on record?
**A.** The self-cleavage was 0.

**Q.** With U13G A57G U112C A140U as the variant, how does the self-cleavage read?
**A.** The self-cleavage was 1.63.

**Q.** With A2G A69G U143G as the variant, how does the self-cleavage read?
**A.** The self-cleavage was 0.66.

**Q.** With U15C U45A A69G as the variant, how does the self-cleavage read?
**A.** The self-cleavage was 0.41.

**Q.** With U1C U9C A31U A94G A142G as the variant, how does the self-cleavage read?
**A.** The self-cleavage was 0.18.

**Q.** Which self-cleavage does the source give for A31U A65U U81A here?
**A.** Its self-cleavage is 0.22.

**Q.** With G36A U62C U91A as the variant, how does the self-cleavage read?
**A.** Its self-cleavage is 0.02.
